Ki data for two substances are collected here from patent US20260327262A1, “BICYCLIC PEPTIDE LIGANDS SPECIFIC FOR EPHA2” (BicycleTx Limited, priority 2019, published 2026).

pKi: −log10 of the molar value.

This assay has as its target human EphA2 (Homo sapiens, UniProt P29317). The experiment in a line: Competition Binding Assay (fluorescence polarisation, competition with fluorescent tracer BCY90). How it is done:
Peptides without a fluorescent tag were tested in competition with a peptide with a fluorescent tag and a known Kd.
Peptides were diluted to an appropriate concentration in assay buffer as described in the direct binding assay with a maximum of 5% DMSO, then serially diluted 1 in 2. […] Measurements were conducted, however the gain was determined prior to the first measurement. Data analysis was in Systat Sigmaplot version 12.0 where the mP values were fit to a user defined cubic equation to generate a Ki value: • f=ymax+(ymin−ymax)/Lig*((Lig*((2*((Klig+Kcomp+Lig+Comp−Prot*c)^2−3*(Kcomp*(Lig−Prot*c)+Klig*(Comp−Prot*c)+Klig*Kcomp))^0.5*COS(ARCCOS((−2*(Klig+Kcomp+Lig+Comp−Prot*c)^3+9*(Klig+Kcomp+Lig+Comp−Prot*c)*(Kcomp*(Lig−Prot*c)+Klig*(Comp−Prot*c)+Klig*Kcomp)−27*(−1*Klig*Kcomp*Prot*c))/(2*((((Klig+Kcomp+Lig+Comp−Prot*c)^2−3*(Kcomp*(Lig−Prot*c)+Klig*(Comp−Prot*c)+Klig*Kcomp))^3)^0.5)))/3))−(Klig+Kcomp+Lig+Comp−Prot*c)))/((3*Klig)+((2*((Klig+Kcomp+Lig+Comp−Prot*c)^2−3*(Kcomp*(Lig−Prot*c)+Klig*(Comp−Prot*c)+Klig*Kcomp))^0.5*COS(ARCCOS((−2*(Klig+Kcomp+Lig+Comp−Prot*c)^3+9*(Klig+Kcomp+Lig+Comp−Prot*c)*(Kcomp*(Lig−Prot*c)+Klig*(Comp−Prot*c)+Klig*Kcomp)−27*(−1*Klig*Kcomp*Prot*c))/(2*((((Klig+Kcomp+Lig+Comp−Prot*c)^2−3*(Kcomp*(Lig−Prot*c)+Klig*(Comp−Prot*c)+Klig*Kcomp))^3)^0.5)))/3))−(Klig+Kcomp+Lig+Comp−Prot*c)))). […]

One may read the pKi as the Ki on a negative log10 scale, so that one unit is a factor of ten.

human EphA2, sequence (P29317 24-976): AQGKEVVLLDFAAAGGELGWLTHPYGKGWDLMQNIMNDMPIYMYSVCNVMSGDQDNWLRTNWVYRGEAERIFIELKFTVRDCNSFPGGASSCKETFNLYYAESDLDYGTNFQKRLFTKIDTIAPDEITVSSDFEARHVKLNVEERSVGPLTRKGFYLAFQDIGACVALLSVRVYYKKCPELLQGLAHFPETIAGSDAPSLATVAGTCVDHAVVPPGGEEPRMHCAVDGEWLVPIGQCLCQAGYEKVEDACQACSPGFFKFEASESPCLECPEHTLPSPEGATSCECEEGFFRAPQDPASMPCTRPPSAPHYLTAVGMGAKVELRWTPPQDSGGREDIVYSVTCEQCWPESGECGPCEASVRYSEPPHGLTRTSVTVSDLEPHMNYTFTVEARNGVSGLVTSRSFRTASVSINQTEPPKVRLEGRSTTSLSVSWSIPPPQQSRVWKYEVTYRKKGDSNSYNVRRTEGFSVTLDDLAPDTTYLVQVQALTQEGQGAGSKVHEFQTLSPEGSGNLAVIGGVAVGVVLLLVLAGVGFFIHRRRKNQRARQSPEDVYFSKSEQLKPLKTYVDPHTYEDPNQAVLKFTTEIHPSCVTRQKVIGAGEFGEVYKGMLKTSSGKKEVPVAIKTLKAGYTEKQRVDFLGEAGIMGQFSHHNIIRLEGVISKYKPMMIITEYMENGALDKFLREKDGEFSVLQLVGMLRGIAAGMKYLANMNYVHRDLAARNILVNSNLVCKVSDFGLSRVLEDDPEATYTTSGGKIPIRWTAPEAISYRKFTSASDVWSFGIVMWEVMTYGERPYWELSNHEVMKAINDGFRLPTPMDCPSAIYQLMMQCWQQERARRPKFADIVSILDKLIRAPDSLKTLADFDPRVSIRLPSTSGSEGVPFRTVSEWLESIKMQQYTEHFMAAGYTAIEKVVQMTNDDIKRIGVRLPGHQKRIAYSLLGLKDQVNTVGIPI

In turn, “A-[HArg]-D-Ci[HyP][Cba]VNPLCiiLEP[dD]WTCiii [BCY12863]” gave a pKi of 8.23.

Turning to “Ci[HyP][Cba]VNPLCiiL[3,3-DPA]P[dD]WTCiii-[dA] [BCY12865]”, the pKi is 9.07.
